This passage reports binding signal results from PMC6212790.

The list shows a part of the results. At the low end of the ranking the order means little.

For this assay, the target named is T1, GST-Rok (full length) (UniProt O34857).
T1 sequence: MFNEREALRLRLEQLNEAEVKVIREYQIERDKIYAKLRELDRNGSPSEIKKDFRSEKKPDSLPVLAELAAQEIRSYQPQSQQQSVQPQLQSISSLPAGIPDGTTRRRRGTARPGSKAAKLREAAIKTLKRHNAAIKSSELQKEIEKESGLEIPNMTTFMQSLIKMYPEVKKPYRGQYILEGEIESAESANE
The assay is described as follows: protein binding microarray.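 Also: rank score from −0.5 (least bound) to 0.5 (best bound).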 The conditions noted are these: Rok is a gene silencer of Bacillus subtilis; high values mean tight binding; most listed sequences are background and not binding sites; double strand, one strand shown.
Sequence AGACTTTA had a binding signal of -0.0247 E-score.

With GGGCTGAC, the binding signal was -0.22 E-score. Regarding GCGAGGCC, the binding signal was -0.339 E-score. Next, AGTTCTTA: -0.0471 E-score; CGTCGACC: -0.191 E-score; CTTGTAAC: 0.162 E-score.

For AACCTTCA, the binding signal is -0.0882 E-score. Next, CCTATAGG: 0.0319 E-score; GTCAGTTA: 0.0939 E-score; AAAAGAGA: 0.0702 E-score. Sequence AAACCATC yielded a binding signal of 0.0623 E-score. On to CGTTCGAC, for which the binding signal is -0.215 E-score. ATCTCCGC yielded a binding signal of -0.0315 E-score. The result for AGCGAGAC reads -0.258 E-score; that for GGGTAGAA, 0.359 E-score; that for CACGACGG, -0.254 E-score. Next, CACTGATG: -0.157 E-score. In turn, GTCACGGA returned a binding signal of 0.0392 E-score.

Sequence GGTAACCA had a binding signal of 0.00448 E-score. As to ACCTAAAC, the binding signal was found to be 0.0418 E-score. The sequence TATCGCCA displayed a binding signal of 0.1 E-score. CAGTAGGA gave a binding signal of 0.219 E-score.

Turning to ACCACTGG, the binding signal is -0.235 E-score. The result for CGAAGGCG reads -0.159 E-score.

GTACGGGA yielded a binding signal of -0.022 E-score. Consider ATAGATAC, for which the binding signal stood at 0.331 E-score. On to ACGGTGCA, for which the binding signal was -0.112 E-score.

Take TCAGGGAA: the binding signal was -0.125 E-score. For the sequence AGTAAGAA, the binding signal was determined as 0.3 E-score. Next, CACGCAGC: -0.243 E-score; GAAGTAAA: 0.237 E-score. In turn, AATGATGA displayed a binding signal of 0.157 E-score. On to ATCTTCCG, for which the binding signal was -0.176 E-score. Consider AATCTTAC, for which the binding signal came to 0.277 E-score. The result for GAGGGTTA reads -0.198 E-score; that for AACCATCC, -0.0159 E-score; that for CTATCGAA, 0.272 E-score.

Sequence AGGCCGAT yielded a binding signal of -0.195 E-score.

CGCGTCGC registered a binding signal of -0.125 E-score.

Regarding GACGTACC, the binding signal was -0.131 E-score. Turning to CAATGACG, the binding signal was -0.114 E-score.

Take ACGTGCGC: the binding signal was -0.106 E-score. The result for CTCAGAGA reads -0.0684 E-score; that for CCCTCATA, -0.0938 E-score.

CACAGGAA came in with a binding signal of 0.02 E-score. As for CACGGCTA, the binding signal is -0.119 E-score. The result for GCAGTTCC reads -0.239 E-score. CACCGGCC returned a binding signal of -0.254 E-score. In turn, ATTGGGGC had a binding signal of -0.241 E-score. In turn, AGCTGGAG had a binding signal of -0.0916 E-score. GCTTTCGA yielded a binding signal of -0.0568 E-score. The result for AATCAGCA reads 0.0281 E-score; that for AGAAGCAT, 0.208 E-score; that for AGCTTCCG, -0.0308 E-score. Next, GCAGTAAA: 0.228 E-score; ATTGCTCG: 0.0313 E-score. Next, TAGAACCA: 0.082 E-score; AATATGCA: 0.304 E-score. In the case of CCCTAGCC, the binding signal is -0.35 E-score.

The sequence CTGATCAC came in with a binding signal of -0.0809 E-score. The result for GGTGCCAC reads -0.126 E-score; that for ATACCATC, 0.198 E-score; that for ACCAAGAA, -0.113 E-score. As for AAAGCATG, the binding signal came out at 0.00987 E-score. Sequence ATAATGAT had a binding signal of 0.127 E-score.

Sequence CCAAGTGC showed a binding signal of -0.225 E-score.

Turning to CAGTTGGC, the binding signal is -0.144 E-score.

Take CGCGAAGC: the binding signal was -0.271 E-score. Sequence ACGATCGC gave a binding signal of 0.0708 E-score. TACACTGA returned a binding signal of 0.111 E-score. As to CTAAGAAG, the binding signal amounted to 0.0468 E-score. Next, TCGTATCA: 0.0181 E-score; TTGTCAAA: 0.0753 E-score; CACGGGCA: -0.202 E-score. The sequence CCAGATGA showed a binding signal of -0.0441 E-score.

Sequence AAGTTTGC yielded a binding signal of 0.169 E-score. On to GAAATTCA, for which the binding signal stood at 0.161 E-score. On to CAGCACGC, for which the binding signal was -0.204 E-score. Sequence ATCCTCCC registered a binding signal of -0.295 E-score. The result for AGCATGCT reads 0.0773 E-score; that for ACTAGTAG, 0.426 E-score. The result for ATGTACCA reads 0.342 E-score.

As to GCATGGCC, the binding signal was -0.257 E-score.

In turn, CAACTAAA registered a binding signal of 0.249 E-score. ATGTGTCG came in with a binding signal of 0.12 E-score. The result for GTGTGCAA reads 0.0366 E-score; that for AGTGTATG, 0.257 E-score; that for CAATGAAG, -0.167 E-score.

The sequence GATGCTAC gave a binding signal of 0.0568 E-score. For the sequence CCGATGGA, the binding signal is -0.0855 E-score. Regarding GGATACAC, the binding signal was found to be 0.0361 E-score. In turn, CGAACAAA displayed a binding signal of 0.189 E-score.

In the case of AATTTGTC, the binding signal came to 0.166 E-score. The result for GAAGCCTA reads -0.058 E-score.

ATGTTCAC displayed a binding signal of 0.167 E-score.

The sequence AATGAGAG yielded a binding signal of -0.0967 E-score.

CAACGGCG showed a binding signal of -0.333 E-score. For the sequence AATTCGTG, the binding signal amounted to 0.0154 E-score. Next, TCCCTTCA: -0.245 E-score; GGGACCCA: -0.351 E-score.

CTTCCCCC gave a binding signal of -0.39 E-score. CCCCGGAA: the binding signal was -0.439 E-score.

With TGGACAAA, the binding signal is -0.0149 E-score. With GCGAACAA, the binding signal came out at 0.217 E-score.

GTTCGGTA displayed a binding signal of -0.0322 E-score.

Sequence AGAGAGGC yielded a binding signal of -0.336 E-score. For ATCACACG, the binding signal was -0.015 E-score. Sequence AACAGCGT gave a binding signal of -0.146 E-score.

Regarding CACGCACG, the binding signal is -0.173 E-score.

Consider CGGTGAAC, for which the binding signal was determined as 0.00962 E-score. GGGTGTCA displayed a binding signal of -0.111 E-score. CTGTCCAA: the binding signal is -0.0757 E-score.

On to GGCACCCA, for which the binding signal is -0.344 E-score.

In turn, AATAGGAT returned a binding signal of 0.2 E-score. Sequence AGGAGAGC returned a binding signal of -0.333 E-score. As to CTCACCGA, the binding signal is 0.0748 E-score. As to ACCCCTCC, the binding signal is -0.459 E-score. In turn, AGAAAAGC displayed a binding signal of 0.125 E-score. CCGTACGC had a binding signal of 0.0343 E-score. As to AGACCTGG, the binding signal is -0.286 E-score.

Turning to CAACTAGA, the binding signal turned out to be 0.247 E-score. Next, AAAGGATG: 0.0304 E-score; ATCGAGAA: 0.183 E-score. For the sequence ACGTGGCG, the binding signal was -0.165 E-score. For AAGTAGGG, the binding signal was 0.253 E-score. The result for ACAACTAG reads 0.351 E-score; that for GCAGACAC, 1.16e-05 E-score. Next, ACCACCCC: -0.292 E-score.

CGAGAATC came in with a binding signal of -0.135 E-score. Sequence CACCTCTA yielded a binding signal of -0.0747 E-score. The sequence AGGACTCA had a binding signal of -0.0424 E-score. In turn, AGGAAGCA registered a binding signal of 0.0205 E-score. ACGTCTCC showed a binding signal of -0.191 E-score. Next, ACAGTGGG: -0.195 E-score; GTCGCAAC: -0.0968 E-score; ATCATTCA: -0.0469 E-score. Sequence TTGCACAA gave a binding signal of 0.0994 E-score. TAGGCCAA gave a binding signal of -0.0237 E-score.

AACGATTC had a binding signal of 0.0523 E-score. Consider CCTGCCCC, for which the binding signal is -0.382 E-score. AGGCGGTA registered a binding signal of -0.0699 E-score. Next, AGATGCGA: 0.0795 E-score. On to CGGTAAAG, for which the binding signal was found to be 0.0396 E-score. AAGGATCG yielded a binding signal of -0.0211 E-score. Consider AGCTACGG, for which the binding signal was 0.132 E-score. On to CAGTCTGG, for which the binding signal is -0.185 E-score.

GAACTACA showed a binding signal of 0.222 E-score. As to ACGTCACC, the binding signal was -0.25 E-score.

Turning to AAATAAGG, the binding signal was 0.151 E-score. TAAGCGTA came in with a binding signal of 0.0518 E-score.

As for CAGAAACA, the binding signal came to 0.146 E-score. Sequence GTGCAACA displayed a binding signal of -0.166 E-score.

AGGGAAAC gave a binding signal of -0.113 E-score. In turn, CGTGCGTA returned a binding signal of -0.0733 E-score. Next, ATAAGGTC: -0.137 E-score. The result for CGGGTAAC reads -0.0214 E-score. Next, CTTAGAAA: -0.0462 E-score; CAAATCTG: -0.00951 E-score. In turn, ACGCTTCG registered a binding signal of -0.102 E-score. Consider AGCGCCTA, for which the binding signal is -0.0798 E-score. Turning to AAACAGCA, the binding signal worked out at 0.0272 E-score. Next, AGCGTTAA: 0.0101 E-score; CAGCGTAG: -0.23 E-score.

In the case of ACCCACGA, the binding signal is -0.0692 E-score. AGTCCCGC registered a binding signal of -0.306 E-score. The sequence AGGGGATG gave a binding signal of -0.359 E-score. For AAAGCGAA, the binding signal was 0.00312 E-score.

TATAGAAA returned a binding signal of 0.363 E-score. As to AATATACG, the binding signal amounted to 0.268 E-score.

As to ACATGACG, the binding signal stood at 0.213 E-score. Take ATTCATCA: the binding signal stood at 0.111 E-score.

With GATAGTGA, the binding signal turned out to be 0.162 E-score.
